Experimental data as given in the supplement of paper PMC11417369.
This is one part of the list.

These sequences were tested on PF3D7_0420300 AP2 domain 1 (GST-tagged) (assay: gcPBM binding intensity (ln(normalized median fluorescence intensity)); higher = stronger DNA binding).
How it was run: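 Alexa488 anti-GST antibody, scanned at 488 nm, detected GST-tagged P. falciparum DNA-binding domains that had been expressed in E. coli and incubated for 1 h on an Agilent 4 × 180k array. The array carried primer-extended double-stranded 36-bp intergenic genomic probes and negative controls. Binding intensity is the highest Masliner-normalised natural-log median intensity across replicate spots of either orientation of each probe.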

Sequence	gcPBM binding intensity (ln)
ATCATGTTATATACATGTACATATATATATATATAA [XGTACX_site609]	9.24
TTTTATTTTTTTAAATGTACACATATTAATGTAAGG [XGTACX_site319]	8.91
ATCATCCAAGATCTTACACACATATTAAATAAATAA [CACACA_site1473]	9.64
CACATATAGTTATATGCACACATCTTACACATCTAT [CACACA_site5937]	9.6
AACACAGATAAATTAACACACACACCCATATATATA [CACACA_site9310]	10.1
TAGCTTATTAATATCATACACACATAGATATATTTA [CACACA_site3105]	9.43
ATGAAATATCGGAACGCACACATAAATATATTTATA [CACACA_site2670]	9.58
CAATTTGGGGTGTACACACACCTTATTTAAATTAAA [CACACA_site6663]	9.29
TTGAACTCTCTTACGCGTACGTGTTATTATGAAAAT [XGTACX_site6265]	9.33
TATATATATATATGTGCATGTAATGATTCAGCATCT [TGCATGCA_site803]	9.43
ATATGTTTTGTTTACGTGCACTGCTTTGTTTATATA [GTGCAC_site9622]	9.92
AGCATATTATCATATTGTACATATTATAATATATAT [XGTACX_site3907]	9.25
ATTTCTCAATCTTAATGTACAAAAAAAAGGAAAAAG [XGTACX_site1210]	9.02
TAAAAATTTTAATAAACACACAATGAGATATTGAAT [CACACA_site5704]	9.36
AGCAAATCAGATAGTAGTACATTTAAATTAGACTTT [XGTACX_site4172]	9.19
TTTTTAATTATCTTTTCCCATGGTTTCTCCGTTTTT [XGTACX_negctrl_site39]	9.45
CAAAATAAAAATAACACACACATTTATATATATACA [CACACA_site1190]	9.98
ATATTCTTTTTATGTGGTACTAATTTTTTTTTTTTA [XGTACX_site3791]	9.59
TAAAACATAAGAGACACACACACATATATATATATA [CACACA_site3643]	9.9
TTTTTAAAACATCACTGTACCCGTTATGGTGAACAT [XGTACX_site3483]	9.06
AGTAAAAGAAAGCACACACACATGTATATAGGTATG [CACACA_site7759]	9.99
TTTTTAAATAATTGAAGTACACATTTCTCTAAGTTG [XGTACX_site2846]	8.97

Sequence	gcPBM binding intensity (ln)
TTTTTTTTTTTGTTTAAACACACGAGCTTTCTTCTT [CACACA_site4085]	9.55
CATGTATTTTATATTACACACTAATATTATAGATAT [CACACA_site6819]	9.33
AAACATATAAACATATGTACATATAAACATATATAC [XGTACX_site5026]	9.42
TTAAAAAAAGAAAAAAAAAAAAAAAAAAAAAAACAT [CACACA_negctrl_site475]	9.55
TATAAAAATATTTCTACACACATTAATATTTATATA [CACACA_site6661]	9.41
TATTATATTCTGCTTACACACATATATATATATATA [CACACA_site3060]	9.72
GTGATAATTGCTTGGTGTACCCACATATATATATAT [XGTACX_site1636]	9.52
GTTCTAAATATTATTGCATGTTGCACGTTTCTCTGT [TGCATGCA_site159]	9.41
AAAAGATATATTATATGTACTAATTATATGATAAAT [XGTACX_site4192]	9.33
AAAGAGAAATTTAAATGTACATTTGTTCTAAGTGTA [XGTACX_site3602]	9.14
AATTATGAAAAATCAAGTACAAACAAAATCATAATT [XGTACX_site5665]	9.49
CATACACCCATACATACACACATACATATATATATA [CACACA_site8591]	9.7
ATATAATGTTTCACATGTACAAACAACACAAAAAAA [XGTACX_site1899]	9.21
TTTTTTTTTTTAAATTGTACTTATTTTATATTATAT [XGTACX_site1077]	9.19
AATGTCATGATACATACACACACATACACATACACA [CACACA_site8665]	9.96
TATTAAATATTGTAATGTACATATATAATATAATAT [XGTACX_site1809]	9.11
ATATCTTATTTTCCTTGTACTTATTTCATAATTACA [XGTACX_site3894]	9.56
CAATAAACCATTTTTTGTACATAAAAATAGGTATTG [XGTACX_site1892]	9.1
AATTTCCCATATTACACACATACTATGATATATAAA [CACACA_site3834]	9.56
TAAATATGTATAAATTGTACAAAATATATGAATAGT [XGTACX_site5659]	9.49
AGTATACGCAAACACACACACACAAAAAAAAAAAAA [CACACA_site426]	9.88
TATTATATTTATATTTGTACTTAAAATATTATACAC [XGTACX_site2881]	9.13
